# Assay results from ChEMBL document CHEMBL4888484, “Replenishing the malaria drug discovery pipeline: Screening and hit evaluation of the MMV Hit Generation Library 1 (HGL1) against asexual blood stage Plasmodium falciparum ,using a nano luciferase reporter read-out” (2022).
# The campaign covered roughly 150,000 compounds. About 540 (0.36%) showed an effect of 50% or more. Some of the results follow.
# Test system: Plasmodium falciparum
# Assay: Primary screen in NF54 nanoGlo assay, in single point, at 2uM, 72h; a lower Z score goes with more inhibition
# Assay type: functional, Erythrocyte
# Details: timepoint 72 hour
Structure (SMILES),% Inhibition,Z score
Cc1ccc(-n2cc(-c3ccccc3)nc2NC(=O)CN(C[C@H]2CCCO2)C(=O)c2ccccc2)cc1F,-3%,0.54
CC(C)C(CNC(=O)N1CCN(C)C(=O)C1)C(C)C,-12%,1.85
CC(=O)Nc1c(-c2ccccn2)nsc1C(=O)N[C@@H](C)c1ccccc1,0%,0.08
COc1ccccc1Cc1nnc2n1CCS(=O)(=O)CC2,-7%,0.79
CC(C)CN(CC(N)=O)c1ccnc(C(C)(C)C)n1,-13%,1.49
CC(C)(C)C(=O)Nc1cc(Br)c(O)c(Br)c1,30%,0.07
Cc1cccn2cc(C(=O)NCCCN3CCOCC3)nc12,-5%,0.72
C[C@H](OC1CCCCCC1)C(=O)NCc1nncn1C,-7%,0.75
CN(C)C(=O)CCc1ccc(CC2CCN(Cc3cccc4[nH]ccc34)CC2)cc1,-17%,2.22
O=C(CCc1ccc2c(c1)OCCO2)NC1CC1,-4%,0.61
Cc1cnc(C(=O)N(C[C@H]2CCCO2)C2CCC(C)CC2)cn1 (stereo partly drawn),0%,0.08
Cc1ncoc1C(=O)N1CCCC[C@H]1c1nc2ccccc2o1,1%,-0.1
CC(C)(C)C(=O)NC[C@H](O)c1c(Cl)cccc1Cl,2%,-0.4
C[C@@H](Cc1ccc(O)cc1)N1CCC(CCC(=O)NCc2cccnc2)CC1,-8%,0.71
CCC=CCCn1c(=O)c(Br)cn(C)c1=O,-9%,1.39
Cc1nn(C)cc1C(=O)N1CCCc2ccccc21,-18%,2.07
COc1ncccc1NC(=O)N1CCC[C@H]1c1nc(-c2ccccc2)c(C(C)C)o1,-3%,0.42
O=C(c1cc(O)c(OCc2ccccc2Cl)cn1)N1CCc2ccccc2C1,3%,-0.37
CCC(C)C1CN(Cc2ccc(C)nc2)CCN1CC(=O)Nc1ccc(OC)c(OC)c1 (stereo not drawn),-7%,0.96
C[C@H](CNC(=O)N1CCC(O)(CO)CC1)Cc1cccc2ccccc12,4%,-0.79
C(=Cc1ccccc1)CN1CCC[C@H](Cn2cncn2)C1,-2%,0.29

Structure (SMILES),% Inhibition,Z score
Cc1ccc([C@H]2CN(C(=O)c3c[nH]nc3-c3ccccc3)C[C@@H]2N(C)C)cc1,-14%,1.58
c1cc2c(cc1CN1CCN(c3nnc(C4CC4)s3)CC1)CCO2,-10%,0.87
Cc1ccc(C=CCC(=O)N[C@@H](C#N)C(C)C)cc1,-3%,0.53
O=C(CCN1C[C@H]2CC[C@H]1C2)NCc1cccnc1Oc1ccc(F)c(F)c1,-21%,2.37
C#CCNC(=O)NCCOCc1cccc(Cl)c1,-13%,2.04
O=C1NCCN1CC1CCN(C(=O)c2cc3ccncc3s2)CC1,-3%,0.53
Cc1nc2ncccn2c1-c1csc(N)n1,-14%,1.36
CCOC(=O)C1CCN(c2cc(C)nc3nc(-c4ccccc4)nn23)CC1,-4%,0.8
COCc1nc(C)cc(NCc2nc(C)cc(=O)[nH]2)n1,4%,-0.81
Cc1c[nH]c(CN2CCC[C@@](O)(CO)C2)c(C)c1=O,10%,-1.38
O=C(c1ccc2nncn2c1)N1CCOc2c(Cl)cccc21,29%,-3.29
CC(C)c1ccc(C2c3[nH]c4ccccc4c3C[C@H]3C(=O)N(C4CCN(Cc5ccccc5)CC4)CC(=O)N23)cc1 (stereo partly drawn),-3%,0.37
CC(C)c1noc(-c2ccnc(N3CC[C@@H](C(F)(F)F)C4(CCC4)C3)c2)n1,-16%,2.04
CC(=O)N1c2ccccc2C(=O)[C@@H]1N1CCN(c2ccccc2)CC1,-13%,1.77
Cc1nc2ccc(F)cc2c(N2CCC(c3nncn3C)CC2)c1C,0%,-0.03
Cc1ccc(S(=O)(=O)N2CCC[C@H](Cn3c(C4CC4)nc4cccnc43)C2)cc1,-13%,1.93
CC(C)(C)OC(=O)N1CCC1CN1CCCC(c2nnc(N)o2)C1 (stereo not drawn),32%,-3.65
CS(=O)(=O)N(CC(N)=O)c1cccc(Br)c1,-1%,0.06
COc1ccccc1C(=O)N(Cc1cccs1)c1cccc(Cl)c1,13%,-1.53
COCCOc1cc(-c2noc([C@@H]3CCCN3CC(C)C)n2)ccn1,15%,-1.78
O=C(Cn1cnc2ccccc21)N1CCC[C@H](Oc2ccncn2)C1,7%,-1.02

Structure (SMILES),% Inhibition,Z score
Oc1nc2cc(Cl)c(Cl)cc2nc1-c1ncc(C(F)(F)F)cc1Cl,-8%,1.07
Cc1cc(C[C@H](CC(=O)c2ccccc2)c2ccccc2)on1,5%,-0.56
CC[C@@H](C(=O)NC(C)(C)C)N(C)Cc1cccc(O)c1,-11%,1.21
CC[C@H]1[C@H](NC2CCN(Cc3ccccc3)CC2)[C@H]2CCO[C@H]21,-2%,0.34
O=C(c1cccnc1)N1CCC2(CC1)NCCc1c2[nH]c2ccccc12,-15%,1.99
CC(C)N(C)C(=O)CN1CCC[C@H](N2CCCCCC2)C1,-13%,1.25
Cc1nc(-c2ccc(N3CCN(C(=O)c4ccco4)CC3)nc2)sc1C,12%,-2.1
O=C(Cc1ccsc1)N1CCN(C(=O)C2CCC2)[C@H]2CS(=O)(=O)C[C@H]21,-9%,1.74
Cc1ccc(CNc2ccc(C(=O)NCc3cccc(F)c3)cc2S(=O)(=O)N2CCOCC2)cc1,-13%,2.5
COc1nc(OC)nc(-c2cccc(-n3cccn3)c2)n1,-8%,1.23
COc1cccc(CNc2cccc(Cn3nc(C)nc3C)c2)n1,1%,-0.11
Cc1occc1C(=O)Nc1ccc(C(=O)N2CCCCC2)c(Cl)c1,7%,-1.25
Cc1ccnc2ccc(C(=O)N3CC(S(=O)(=O)CC(C)C)C3)cc12,-12%,1.59
O=C(O)Cn1ccc([C@H]2CCCN(Cc3ccc(Cl)c(Cl)c3)C2)n1,-6%,1.17
Cc1ccc(CNC(=O)NCC2CCC(O)C2)s1 (stereo not drawn),-9%,0.94
O=C([C@H]1CCOC1)N1CCC(Cc2ccc(COc3ccncc3)cc2)CC1,-14%,2.66
CC(C)NC(=O)c1cccnc1Oc1cccc(NS(=O)(=O)c2ccc(F)cc2)c1,-2%,0.41
O=C(NCCCNc1ccccc1)Nc1ccncc1F,-4%,0.83
O=C(Nc1ccc2c(c1)C(O)=Nc1cccnc1O2)c1cccc(F)c1,15%,-1.61
Fc1ccc(C2CCCC2NCCCn2ccnc2)cc1 (stereo not drawn),-6%,0.53
CCn1ncnc1[C@H](C)NC(=O)c1ccc(CCC(C)(C)O)cc1,2%,-0.31

Structure (SMILES),% Inhibition,Z score
Cc1onc(C(=O)N2CC(=O)N(CC(C)C)C[C@H](O)C2)c1COc1ccccc1,6%,-0.78
COCCN1C(=O)[C@@H]2CC[C@H]1CN(C(=O)c1csc(CN(C)C)n1)C2,-13%,2.4
Cc1ccn2c(=O)c(C(=O)NCc3ccncc3)c(O)nc2c1,-13%,1.74
CCc1nn2c(c1-c1ccc(OC)c(S(=O)(=O)N3CCOCC3)c1)NC(=O)CCC2=O,-9%,1.01
CC(C)c1ccoc1C(=O)Nc1nn(C(C)C)cc1C#N,-8%,0.88
CN(C)c1ncccc1N(C)S(=O)(=O)c1ccc(C#N)cc1,-11%,1.72
Cn1nc([C@@H]2CCCN2C(=O)COc2ccc(F)cc2)c2c1CCOC2,-11%,1.03
COC(=O)[C@H](CC1CCCCC1)NC(=O)[C@@H]1CN(C(=O)c2ccc(N(C)C)cc2)CCN1C(C)=O,10%,-1.19
CC(C1CC1)N(C)C(=O)C1Cc2ccccc2O1 (stereo not drawn),-11%,1.56
CC(C)OC(=O)Cn1nc2c(S(=O)(=O)N3CCCCC3)cccn2c1=O,1%,-0.17
O=C1COC2CCN(C(=O)c3c[nH]nc3-c3ccsc3)CC2N1 (stereo not drawn),-10%,1.49
CN(C)C1(CC2CC2)CCN(Cc2cccc(C#N)c2)CC1,-3%,0.54
CN(C(=O)CC1(O)CCCCC1)[C@H]1CCN(CC(F)(F)F)C1=O,-10%,1.38
Oc1ccnc([C@H]2CC[C@H](Nc3ncccn3)CC2)n1,-2%,0.45
COC(=O)c1ncnc(NCc2nc(C(F)(F)F)c[nH]2)c1OC,-6%,0.82
CC(C)[C@@H]1N(c2ccc(S(C)(=O)=O)cn2)CC12CCCC2,-5%,0.69
Cc1cccc(NC(=O)c2cc(C)n(Cc3ccccn3)c2C)c1C,-1%,0.1
Cn1c(C(=O)N2CCCCC2)cc2cc(S(=O)(=O)N3CCCCC3)ccc21,-10%,1.82
C=C[C@H](CO)NC(=O)CC1C(=O)Nc2c(F)cccc21 (stereo partly drawn),-11%,1.51
Cc1cc(F)ccc1NC(=O)C(=O)NC[C@H](O)C(C)(C)C,-2%,0.26
CCC[C@H]1CN(C(=O)C(C)(C)Oc2ccc(C)cc2)C[C@@H]1N,19%,-2.52
